Experimental data published in the supplement of paper PMC12632987.
In all, about 4,500 sequences were measured (“median log2 fold change of GCK-ALFA target abundance (FLAG IP / Myc IP barcode read proportion)”: median about 0.078, lowest 2% from about -0.6 on). The list shows a part of the results.

B1: GBRAP_26_5457 (protein)
chain: VEEAIDEARDNLEKVAKEVLTPEDAAAVITEISTEAWEIEKVVEEHPNDLEKIEKAIEDFKEDVLETLDLLDVPEDKKKIIKEKIEEEAKRLKEVAKEKV
B2: GBRAP_128_3484 (protein)
chain: SVEEAVAKVKELMEKIKTSSLEEVKEIAKEIVELLGSLDDESAEAAAEVIIKELPKLSAEKLDILADVFRENRDKLDPLKANLVADVQVEALNEALEKEE
B3: GBRAP_52_6038 (protein)
chain: MRERMRALAEEIVALVRAGRLDEARALIERLVATETPEELELLGEELARLAREAAPEDLDAIMEAADMFADALIAAGYDEVFADDVLARVARAAVENLAA
B4: GBRAP_160_4089 (protein)
chain: MEEVEKLIEEIREEAERTKEMIEGETAEQRATIVRGLGGDVIMLLFESGVVSDEVIDFADEEFDALVDTILANPDLTYEEVKAMLDEVVEKIIEKIKEEA
B5: GBRAP_128_3331 (protein)
chain: MNEERIEEARELAREMEKADVEEVREITRRILELMGEASEEEREIIAEIFREALEKLSAEKLEAVADEIRRRRPELDPLTQLYADDLEVEALNLAEEKEE
B6: GBRAP_78_6714 (protein)
chain: KVKELLEKAIKELNKAAKLALKLPEERSNEILDLLVEAANLLHEVMEEGVEKEEALKKLEEALKKLEEAEKLLGENDKELKKEVEKAKKLVEEAIKKLKE
B7: GBRAP_80_6854 (protein)
chain: AEAALAAALAALAAVLPENAAVAKEIVEIAKELGVPLETITDFLNAMTELAKVDPAKAGELLKELLEELKELKEEGDSEGATAVLQGYAGEALLLAEELE
B8: GBRAP_184_5215 (protein)
chain: TLKRVAIEATTAEEAIAKADAAVAAAQAAGVDLVLHVFAENMSLEEIEEVMKYLSGLLKAGKIKDAVLHVEDDLSEEEIDKLIELADKYGIRLVLALPDS
B9: GBRAP_52_6103 (protein)
chain: MREELRKKLLEILELVKAGKLEEAEKEIRKLVEELDDEELRLFADELARLAREAAPEDLDAVWRLAEMIAKAMEEAGKDEVLVDYLLARTAAALYEREQA
B10: GBRAP_160_4567 (protein)
chain: MEKVKKFLEDLEKAIKETLEATKNDSVENIRIAVVGTVGSFAMEAAEDPEFSDEMVDAIIDAGDEIAEALKKMKNASYEEIRKEVMKIIEKLKKKVLEIA
B11: GBRAP_160_4282 (protein)
chain: GEKLKELAEELREDRDEILSLVDKISAEEVRTFAVTSLGSILMEAIDGELLTDEEEDELAKIIDDLEAELDALKDASPEEIRAAIEKHFDKAIELLEKAA
B12: GBRAP_14_3825 (protein)
chain: MEKIREVIARMVADLEALFAAISPAKAAALAAAVKAEAERALREIEETGDVEAAMRAAEARLVAAVAAILADEPAEVQATAQAAVRVEWAEAEEEIDELL
B13: GBRAP_14_3802 (protein)
chain: SEEREKAVREITRETIELVREVLEDAPEEVREAVEEKIEEFEEEVIEKNLNPDEVAELGDELVEEVEEILKDAPEEVRARVLAVVAVETGVVVLEIEELE
B14: GBRAP_52_6076 (protein)
chain: MEEKIKATADAIYEAIKAGDKEKALALIEEAIKNFSIEEIKKMLELTAKKVAALGEEAEELFVEVLDEAEDLLLKAGISEDDALEIVGAAEAALAKAVAA
B15: GBRAP_139_3688 (protein)
chain: SALEAKLAEARELTRRAVAEGEPALRELAAFLNSLSEEEREKAVEAIGEELLSLPFDEAEAIFEALRRIALEEFKNEDLAEMIEIERERTLARIAVREEA
B16: GBRAP_160_4745 (protein)
chain: SEELKKLLEEVNEIFDEGIELLEEVPKEEALTVVRGTMGEVLMAVFSSDAASDELEEKIGEIMDEAVERAEANEDGSVEEFIAILKEARDKITELIEKEI
B17: GBRAP_128_3224 (protein)
chain: SMEELEEKVRELLEKIKESGPEERRKLAKELAELMANSTVEEAEAMVKVVEELAPELSEEDLEILIDEFEKAAKATDGPIADELLYAATILSEELLEKEE
B18: GBRAP_184_5247 (protein)
chain: AVHSLELTVNSAADIPAAVAKAAAFFAAHKGTIHILLTAEGISTEDKVELIEALGKAAKAAGIKDLIIDLDADLSEEDVDKLIAAADKLGVRLVVALNEE
B19: GBRAP_128_3368 (protein)
chain: LDEEKLEEIRKLVEEMIKSSVEEVAELTKEIVELISKLSPEEKEAAVEIILEMLPKFSEEKLETIADVIEENKSKVDEYTQRLLAEVQVEALNLAEELEE
B20: GBRAP_122_2949 (protein)
chain: SSEERVRARVDETLARAEAGDPTAAIVEALLEAAEELSPEEVKRFADLLAERMRELGKEAEAAKAFATAALTLEKERPELAEVADHLADLAIELLDLLEE
B21: GBRAP_160_4053 (protein)
chain: MEKLEELKESVKEAEKLILETIETDGVDAAIVVADGEFGSIIMEAAEDEEASEELEEELAKIRDDLVAKLKAAKNASVEEQKKIVKEAAEKAIEAIEKLF
B22: GBRAP_160_4166 (protein)
chain: MEKLEKAKKEIKEIFEEAIEEMKGQTAEERANIARVAFGEIKLLLEENGLLTDEVEEKIDEIEEELVSTILANPDLTDEELAELIKKALEEIFKALEESY
B23: GBRAP_83_6875 (protein)
chain: AEEITVAGPGDRVDELVDAAIDLHKEEGYKVSLEIIVTPEQRDKVLAALKRLADAGVETDVTVLAVGATPEEAAALKAEMEAIFAAAGVKAKVEVVLEEP
B24: GBRAP_52_6069 (protein)
chain: MEERIEKLAKEIAEAIAAGDMEKALAILEEAAKELSVEELKELLVKAAELVASLGDEAHERFVDLLDEFYDILLKEGISEEDALLIVGEAEAALAKAVAA
B25: GBRAP_128_3269 (protein)
chain: MDPAVVARARAAVDAIRTSSPAERRAIADAFADWLLAASVEDAEQAVEVVEERLPELSVEDLDILADALRARRPLADPEKANLLADLEVAALNEAEELEE
B26: GBRAP_184_5304 (protein)
chain: KIKEVDIEADSAEEAIKQIEKAAEEAEKEGKKLKLYLSLKNVSVEGFKKVMELLKKLKEEGKLEDAVVEVLNDKSEEEIDEFIKLADEAGVKLVIALPDE
B27: GBRAP_35_5536 (protein)
chain: MEDEEIVEMIVNTMEDIVEALPDVSPEDRAKLAEHLIRLAERIVEEKPKNKKLIKEAIENLERAIEIIKKSDLPEEVRERLIKRLEEVKEKLEKILKENE
B28: GBRAP_83_6891 (protein)
chain: MIVIAAGGTAEAVEAAVDAAIDLSKEEGEEVVLEAMLGPGAVPALLAGLDRLAAAGVKVELEVTVVARTREEAEATAARVEAHARASGAASKVRVDTEVV
B29: GBRAP_48_5821 (protein)
chain: HHMDEEELEKLVKETVEFMKEVYEEAKKEGLSDEEILKMIKAELGDLALELEEAGYEKAADYLLDPENREKLAKTLLEFFKEGKYEEAYKYLLEELKKAE

These binders were tested against GABARAP, O95166 (assay: median log2 fold change of GCK-ALFA target abundance (FLAG IP / Myc IP barcode read proportion) (log2 ratio); each designed protein is fused to an ALFA-tag nanobody in HEK293 cells to bring the named protein to FLAG-tagged glucokinase (GCK); Myc marks an untargeted standard; higher = target protein stabilised (more abundant)). Conditions: target protein: 3xFLAG-MCP-GCK-ALFA reporter; HEK293 landing pad (RPLP).
GABARAP, O95166, sequence (O95166 whole entry, the tested form may be a part): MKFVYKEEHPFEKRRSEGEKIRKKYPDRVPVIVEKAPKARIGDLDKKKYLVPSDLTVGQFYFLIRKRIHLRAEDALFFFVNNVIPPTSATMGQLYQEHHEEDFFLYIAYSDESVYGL
Outline: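 An ALFA-nanobody-fused binder library was recombined into HEK293 landing-pad cells and induced with 2 μg mL^−1 doxycycline. Cells were transfected with a plasmid expressing a FLAG-tagged target and a Myc-tagged standard. After 48 h, lysates underwent anti-FLAG and anti-Myc immunoprecipitation, and circular RNA barcodes were reverse transcribed, amplified and sequenced. Target abundance is the per-binder median log2 ratio of FLAG to Myc barcode read proportions. Barcodes needed ≥10^−7 proportion in both replicates, binders ≥3 barcodes per replicate, and a 10^−6 pseudocount was added; the two replicates were pooled.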

Binder	median log2 fold change
B1	-0.278
B2	0.0363
B3	0.0763
B4	0.0826
B5	0.286
B6	0.33
B7	0.123
B8	0.157
B9	0.0923
B10	0.0399
B11	-0.356
B12	0.0541
B13	-0.586
B14	-0.554
B15	0.313
B16	-0.202
B17	0.175
B18	0.156
B19	0.172
B20	-0.0847
B21	0.159
B22	0.267
B23	0.148
B24	-0.00777
B25	0.0243
B26	-0.173
B27	0.00223
B28	-0.155
B29	0.0598
